Source: paper PMC4336329 (PLoS ONE, 2015)
About 14,000 (4.5%) of roughly 310,000 compounds showed an effect of 50% or more. Effects have a minus sign here. This is one part of the list.

What follows are molecules tested against human ether-à-go-go-related gene (hERG) potassium channel (human, UniProt Q12809) (assay: primary screen, population patch clamp on CHO cells stably expressing hERG).
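Further: peak tail current of the secondary pulse compared with the same well before compound.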

human ether-à-go-go-related gene (hERG) potassium channel, sequence (Q12809 whole entry, looked up): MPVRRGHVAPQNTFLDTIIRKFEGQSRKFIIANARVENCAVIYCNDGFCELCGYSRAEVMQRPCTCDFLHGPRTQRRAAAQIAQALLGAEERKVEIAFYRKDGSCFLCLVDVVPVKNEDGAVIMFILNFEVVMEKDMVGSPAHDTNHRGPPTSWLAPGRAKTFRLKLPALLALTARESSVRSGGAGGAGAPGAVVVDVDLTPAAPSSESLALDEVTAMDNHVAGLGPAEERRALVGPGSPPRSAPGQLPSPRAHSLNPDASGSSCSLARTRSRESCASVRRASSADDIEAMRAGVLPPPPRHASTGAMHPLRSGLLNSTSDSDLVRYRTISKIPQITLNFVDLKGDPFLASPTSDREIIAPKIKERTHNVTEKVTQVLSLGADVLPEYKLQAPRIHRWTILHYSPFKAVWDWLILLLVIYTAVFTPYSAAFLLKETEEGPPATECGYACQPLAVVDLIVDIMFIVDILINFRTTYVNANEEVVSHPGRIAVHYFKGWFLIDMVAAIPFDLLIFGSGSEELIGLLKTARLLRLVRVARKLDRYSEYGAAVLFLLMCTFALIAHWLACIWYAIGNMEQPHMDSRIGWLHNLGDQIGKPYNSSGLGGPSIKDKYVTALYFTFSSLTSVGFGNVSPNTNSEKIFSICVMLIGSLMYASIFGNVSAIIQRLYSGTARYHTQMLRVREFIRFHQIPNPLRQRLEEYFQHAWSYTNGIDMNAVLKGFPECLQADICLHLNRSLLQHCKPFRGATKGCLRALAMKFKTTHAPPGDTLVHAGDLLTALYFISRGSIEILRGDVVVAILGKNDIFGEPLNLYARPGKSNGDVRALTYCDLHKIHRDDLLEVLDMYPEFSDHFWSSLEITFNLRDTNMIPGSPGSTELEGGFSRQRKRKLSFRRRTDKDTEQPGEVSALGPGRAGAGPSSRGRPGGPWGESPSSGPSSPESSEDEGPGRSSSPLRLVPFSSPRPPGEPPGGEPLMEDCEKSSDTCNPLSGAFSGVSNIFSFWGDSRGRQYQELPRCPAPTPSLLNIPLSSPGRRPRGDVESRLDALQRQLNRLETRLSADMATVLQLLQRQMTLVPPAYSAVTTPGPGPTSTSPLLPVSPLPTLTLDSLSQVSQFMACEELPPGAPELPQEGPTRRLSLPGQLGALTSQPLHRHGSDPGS

| SMILES | hERG current change (%, negative = inhibition) at 10uM |
| --- | --- |
| COC(=O)c1ccc(CN2CCCC(CO)(Cc3ccccc3F)C2)cc1 (centres unmarked) | -32.7% |
| CCN(CC)S(=O)(=O)c1cccc(C(=O)Oc2cccnc2)c1 | -8.07% |
| CCS(=O)(=O)C(C)(CCl)C(=O)Nc1ccc(C(=O)OC)cc1 (centres unmarked) | -2.52% |
| COc1cc(-n2c(=O)c3ccccc3n(CC(=O)OCc3ccccc3)c2=O)cc(OC)c1OC | 49.1% |
| CCOc1cc(OCC)cc(C(=O)Nc2cccnc2)c1 | -12.9% |
| Cc1ccccc1NS(=O)(=O)c1ccc2c(c1)oc(=O)n2C | 18.6% |
| CCOC(=O)c1nnc(-c2ccccc2)nc1NCc1ccc(Cl)cc1 | -19.3% |
| CCCCOc1ccc(-c2cc(C(F)(F)F)c(C#N)c(SCC(=O)O)n2)cc1 | 11.8% |
| O=C(CCc1ccccc1)NNC(=O)Nc1ccc(Cl)cc1 | 20.5% |
| CCCC(O)(CCC)C(=O)NN(C(=O)OC)c1ccccc1 | 21.3% |
| Cc1ccc(OCC(=O)NNC(=O)c2cccnc2)cc1C | 8.02% |
| COC(=O)c1cc(NS(=O)(=O)c2ccc(Cl)c(N3C(=O)c4ccc(C(=O)O)cc4C3=O)c2)cc(C(=O)OC)c1 | 2.53% |
| CCCOc1ccc(/C(CC)=N/NC(=O)C2(C)CC2(Br)Br)cc1 (centres unmarked) | -6.48% |
| CSc1nncc(-c2ccc(F)c(F)c2)n1 | 10.8% |
| CC(C)CCOc1cccc(OCC(=O)N(C)C2CCS(=O)(=O)C2)c1 (centres unmarked) | -26.6% |
| Cc1ccccc1OCC(=O)OCC(=O)Nc1ncc(Cl)c(C)c1Cl | 3.55% |
| CCC[C@@H]1CCCO[C@@](C(=O)NCc2ccc(S(C)(=O)=O)cc2)(C(F)(F)F)C1 | -5.92% |
| CCOc1ccc(-c2ccc(SCC(=O)NCC3CCCO3)nn2)cc1 (centres unmarked) | 6.23% |
| O=C1C2C3C=CC(C3)C2C(=O)N1c1cccc(N2C(=O)C3C4C=CC(C4)C3C2=O)n1 (centres unmarked) | -9.57% |

| SMILES | hERG current change (%, negative = inhibition) at 10uM |
| --- | --- |
| Cc1cc(C)c(S(=O)(=O)Nc2ccncc2)cc1C | 18.1% |
| CC1=CC(C)(C)n2c(O)c(N=N)c3c(C)c(C)cc1c32 | 5.73% |
| CN(CC(=O)Nc1cccc(F)c1)C(=O)c1cn(-c2ccccc2)nc1-c1ccc(Cl)cc1 | 8.82% |
| Fc1ccccc1N1CCN(C2CCN(Cc3c[nH]c4ccccc34)CC2)CC1 | -54.5% |
| C=CCC(C(=O)OC)(C(=O)OC)c1ccc([N+](=O)[O-])cc1[N+](=O)[O-] | -6.05% |
| CCC(=O)Nc1cc(Cl)ccc1C(=O)O | -7.2% |
| Cn1cc(C(=O)NCc2ccc(F)cc2)cn1 | 2.34% |
| COc1cc2c(cc1OC)CN(C(=O)c1ccccc1C(=O)O)CC2 | 15.7% |
| O=C(NCC1CCCO1)c1onc(CSc2ccccc2)c1C(=O)O (centres unmarked) | 10.1% |
| COc1cc(OC)cc(C(=O)Nn2cc(C(=O)Nc3c(F)cccc3F)c3ccccc3c2=O)c1 | -1.13% |
| Cc1nc(NC(=O)C23CC4CC(CC(C4)C2)C3)sc1Cc1ccc2c(c1)OCO2 | 6.08% |
| Cc1ccccc1NC(=O)Cn1nc(C)n2cccc2c1=O | 0.673% |
| COC(c1ccccc1)c1nnc(CCC(=O)N(C)Cc2cccc(-n3cccn3)c2)o1 (centres unmarked) | -27% |
| CCC(C)c1ccc(NC(=O)NCCN2CCCCC2)cc1 (centres unmarked) | -47.2% |
| Cc1ccc(Nc2nnc(SC3CCOC3=O)s2)c(C)c1 (centres unmarked) | -16.9% |
| CCOc1ccc(NC(=O)c2sc3nc(N4CCOCC4)c4c(c3c2N)CCCC4)cc1 | 24.4% |
| O=c1[nH]c(SCc2ccccc2)nc2c1cnn2-c1ccc(F)cc1 | 7.35% |
| Cn1c(CC(=O)Nc2ccccc2F)nnc1SCC(=O)Nc1nncs1 | 3.33% |
| Cc1ccc(C(=O)NN2C(=O)C3C4c5ccccc5C(c5ccccc54)[C@@H]3C2=O)cc1 (some centres unmarked) | 14.7% |

| SMILES | hERG current change (%, negative = inhibition) at 10uM |
| --- | --- |
| Cc1ccc(S(=O)(=O)NCC(c2ccc3c(c2)OCO3)N2CCN(c3ccccc3)CC2)cc1 (centres unmarked) | 12.8% |
| CSc1nc(N)nc(-c2cccs2)c1C#N | -26.2% |
| COc1cccc(COc2ncnc3sccc23)c1 | -9.79% |
| CCc1cc(-c2n[nH]c(C)c2-c2nc3ccccc3n2C)c(O)cc1O | 11.7% |
| COc1ccc(C(=O)O/N=C/c2c(C(F)(F)F)nn(C)c2SCc2ccccc2Cl)cc1 | -9.6% |
| COc1cc(NC(=O)COC(=O)c2ccc(S(=O)(=O)N3CC(C)CC(C)C3)cc2)c(C)cc1[N+](=O)[O-] (centres unmarked) | 4.52% |
| CCC(c1nnnn1C(C)(C)C)N1CCN(C2CCCC2)CC1 (centres unmarked) | -5.45% |
| CCc1ccc(NC(=O)CS(=O)CC(=O)NCC2OCCc3ccccc32)cc1 (centres unmarked) | -6.57% |
| O=[N+]([O-])c1ccc(S(=O)(=O)N2CCSC2c2ccco2)cc1 (centres unmarked) | 2.68% |
| O=S(=O)(NCCSCc1ccc(Cl)cc1Cl)c1ccc2c(c1)OCCO2 | 0.999% |
| O=C(NCc1cccc(Cl)c1)c1ccc2nc[nH]c2c1 | 13.4% |
| Cc1ccc(C2=NN(CC(=O)NCc3cccs3)C(=O)CC2)cc1 | -43.9% |
| O=C(OCC(=O)N1c2ccccc2Sc2ccccc21)c1cccnc1 | 5.27% |
| CCCCNC(=O)NNC(=O)C1CC1(c1ccccc1)c1ccccc1 (centres unmarked) | 11.5% |
| Cc1cc(C(F)(F)F)nn1CC(=O)NNC(=S)Nc1ccc(F)cc1 | 13.2% |
| O=[N+]([O-])c1cccc(-c2noc(-c3ccco3)n2)c1 | 14% |
| COc1ccc(NC(=O)CSc2n[nH]c(C(C)C)n2)c([N+](=O)[O-])c1 | -17.8% |
| CN(C)C(=O)c1cc(C(=O)Cc2ccccc2)c[nH]1 | 23.3% |
